Results reported in PubChem BioAssay AID1919017 (Molecular Pharmacology Branch, DTP, NCI, 2023).
Some entries of the source have several records that differ or are many. This is not the full list of results. An entry can have further records. Values given together are repeats (runs, samples, wells, individuals or studies). Brackets with × give the number of equal values in this list.

Test system: SW1271 complex spheroids with HUVEC/MSC, growth, % test/control
Test: Anticancer human tumor SW1271 cell line growth inhibition [AhR];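 further: spheroids exposed to agents for 7 days before readout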
Conditions: for viability, T/C: stronger effect = lower value; for IC50: compound alone
Source text: Multicellular complex tumor spheroid response to aryl hydrocarbon receptor antagonists in combination with a variety of drugs and investigational agents in selected tumor cell lines
The current study was undertaken to assess response to aryl hydrocarbon receptor antagonists in combination with standard-of-care drugs and investigational agents in solid tumor complex spheroid models. Complex spheroids include a stromal component modeled by human endothelial cells (HUVEC) and fibroblasts modeled by human mesenchymal stem cells (MSCs). The concentration ranges selected for each drug and investigational agent were based upon clinically achievable concentrations if the clinical Cmax of the agent was known.
Compounds. The drugs and investigational agents: BAY 2416964 (NSC825713), GNF351 (NSC835774), CH-223191 (NSC835775), CPI-455 (NSC825282), aza-TdCyd (NSC777586), decitabine (NSC127716), belinostat (NSC758774), entinostat (NSC756642), pevonedistat (NSC761192), tazemetostat (NSC777109), talazoparib (NSC765396), olaparib (NSC753686), selinexor (NSC780203), nedisertib (M3814, NSC802822), bortezomib (NSC756655), venetoclax (NSC766270), doxorubicin (NSC123127), elimusertib (BAY189344, NSC800525), ceralasertib (AZD6738, NSC777638), TAK-243 (NSC785004), alisertib (NSC759677), etoposide (NSC141540), topotecan (NSC609699), eribulin (NSC707389), gemcitabine (NSC613327), carboplatin (NSC241240), cisplatin (NSC119875), and SN-38 (NSC673596) were obtained from the National Cancer Institute (NCI) Developmental Therapeutics Program Chemical Repository (32). The FDA-approved anticancer drug set is available from the Developmental Therapeutics Program at https://dtp.cancer.gov/organization/dscb/obtaining/available plates.htm. […] The stock solutions were prepared in dimethyl sulfoxide (DMSO, Sigma-Aldrich, St. Louis, MO, cat. D2650), except for the platinum compounds which were prepared in saline (Quality Biological, Gaithersburg, MD, cat. 114-055-101), at 800-fold the tested concentration and stored at -70 degrees C prior to their use. All drugs and investigational agents were tested over a range starting from a high concentration at or near the clinical Cmax and decreasing in half-log increments. If the clinical Cmax for an agent had not been determined, the highest concentration tested was 10 microM (Table 1).
Cell Culture. All cells were maintained in an incubator at 37 degrees C and 5% CO2 with 95% humidity. The PDC lines were cultured according to standard operating procedures established by the NCI PDMR (https://pdmr.cancer.gov). Briefly, all PDCs were thawed and cultured in Matrigel-coated flasks prepared with a working solution of 1X Ham's F-12 nutrient mix, without supplementation (Invitrogen, Waltham, MA, cat. 11765054), 100 U/mL penicillin-streptomycin (Invitrogen, cat. 15140122), and 2.5% Matrigel (Corning Inc., Corning, NY, cat. 354248) for the first three passages. All PDCs were cultured in complete DMEM/F-12 media containing advanced DMEM/F-12 (Invitrogen, cat. 12634028), 4.9% defined fetal bovine serum, heat inactivated (HyClone Laboratories Inc., Logan, UT, cat. SH30070.03HI), 389 ng/mL hydrocortisone (Sigma-Aldrich, cat. H4001), 9.7 ng/mL human EGF recombinant protein (Invitrogen, cat. PHG0313), 23.4 microg/mL adenine (Sigma-Aldrich, cat. A2786), 97.3 U/mL penicillin-streptomycin (Invitrogen, cat. 15140122), 1.9 mM L-glutamine (Invitrogen, cat. 25030081), and 9.7 microM Y-27632 dihydrochloride (Tocris Bioscience, Bristol, United Kingdom, cat. 1254). The PDCs were cultured in complete DMEM/F12 media without 10 microM Y-27632 dihydrochloride for at least two passages prior to the screen. The established cell lines NCI-H1341 and […] were cultured in DMEM/F-12, HEPES (Invitrogen, cat. 11330032), 5% defined fetal bovine serum (HyClone Laboratories Inc., cat. SH30070.03), ITS premix universal culture supplement [insulin (5 microg/mL), transferrin (5 microg/mL), and selenious acid (5 ng/mL)] […]

Structure (SMILES) | viability, T/C (compound alone 0.1 µM) | viability, T/C (compound alone 0.316 µM) | viability, T/C (compound alone 1 µM) | viability, T/C (compound alone 3.16 µM) | viability, T/C (compound alone 10 µM) | IC50 | IC50 (run of 08/16/2022)
Cc1ccccc1N=Nc1ccc(NC(=O)c2ccnn2C)c(C)c1 | 89.5 (2×), 73.8, 78.6, 60.8, 86.3 (2×), 82.5, 82.9, 107, 93.1, 108 (2×), 102, 109, 106, 115, 99.5, 111, 99.6% | 91.5, 69.5, 73.2, 65.6, 121, 101, 79.8, 88.4, 105, 93.4, 96.1, 82.6, 96.2, 108, 90.1, 107, 110, 90.7, 100, 89.9% | 101, 81.8, 77.3, 77.7, 103 (3×), 77.5, 80, 99.3, 110, 108, 94.4, 88, 87, 104, 86.8, 114, 90.7, 90.9% | 90.7, 66.8, 78.3, 84.7, 95.7, 73.9, 85.4, 91.5, 93.2, 96.2, 88.3, 87.7, 114, 101 (2×), 118, 105, 102, 95.6, 92.1% | 100, 65.8, 69.3, 64.2, 94.1, 70.5, 71.3, 88.8, 89.3, 101, 113, 82.1, 84.3, 99.1, 96.9, 87.8, 94.3, 97.3, 90.5, 85.2% | – | –
COc1cc(C2c3cc4c(cc3C(OC3OC5COC(C)OC5C(O)C3O)C3COC(=O)C23)OCO4)cc(OC)c1O (configuration not stated) | – | – | – | – | – | 10 µM, > 10 µM, 215 nM | –
Cc1cncc(-c2nc(NCCc3c[nH]c4ccccc34)c3ncn(C(C)C)c3n2)c1 | 110, 101 (2×), 107 (2×), 78.1, 89.4, 98.2, 76.6, 109, 89.8, 96.3, 99.5, 104, 97.3, 83.8, 108, 85.7, 88.1, 89% | 112, 102, 83.7, 97, 86.9, 100, 79.9, 93.7, 92.4, 78.2, 108, 111, 98.5, 105, 96.3, 106, 99.1, 86.2, 88.2, 95.5% | 112, 104, 77.8, 95.4 (2×), 103, 111, 98.6, 84, 92.9, 91.2, 98.3, 96.2, 97.3, 83.5, 89.2, 102, 94.6, 89.9, 97.8% | 111 (2×), 130, 83.1, 104, 105, 85.9, 101 (2×), 95.8, 94.7, 102, 103, 92.4, 107, 99, 86.5, 95.2, 96.2, 84.6% | – | – | > 10 µM, 8.5 µM, 7.53 µM, 9.01 µM, 8.68 µM, 8.36 µM, 8.83 µM, 9.08 µM, 8.59 µM, 9.2 µM, 8.66 µM, 8.6 µM, 9.94 µM, 6.51 µM, 9.97 µM
CC(CO)NC(=O)c1cc(-c2ccc(Cl)cc2)nn(-c2cnn(C)c2)c1=O (configuration not stated) | – | 80.2, 82, 89.5, 81.1, 105, 78.8, 76.6, 106, 92.8, 87.2, 117, 91.7, 113, 89, 79.6, 92.1, 71.8, 92.3, 95, 93.2, 96% | 105, 77.6, 80.1, 78.3, 92.7, 83.8, 88.5, 73.5, 81.5, 79.7, 97.4, 94, 94.6, 85, 78.8, 107, 82.3, 97.7, 93.6, 67, 85.3% | 77.2, 78.4, 81.9 (2×), 80.6, 91.4, 71.3, 85.9, 92.8, 84.2, 70.8, 61.8, 89.3, 84.4, 88.9, 92.3, 85.6, 79.1, 75.2% | 66.6, 77, 69.2, 70.2, 76.3, 69.3, 74, 59.8, 71.7, 75.9, 67.5, 78.9, 69, 55, 76.6, 81.9, 65.2, 66.3, 68.4% | – | –
COc1cccc2c1C(=O)c1c(O)c3c(c(O)c1C2=O)CC(O)(C(=O)CO)CC3OC1CC(N)C(O)C(C)O1 (configuration not stated) | – | – | – | – | – | 170 nM, 342 nM, < 31.6 nM | –
Nc1ccn(C2OC(CO)C(O)C2(F)F)c(=O)n1 (configuration not stated) | – | – | – | – | – | 10 µM, > 10 µM, < 31.6 nM | –
